By IC50 is meant the dose at which the fit gives 50% viability; where the fit passes the top or lowest dose, that dose stands as a limit. The AUC spans the tested range (256-fold, ending at the top dose) of the same fit: 1 means no effect, lower means more sensitive. For some assays here: Where the top dose is marked as inferred, it was derived from the fitted curves, not read from the paper. For some assays here: An entry number marks a drug with two screens in the source, which often give different values.
Assays:
Test in all cases: Viability of human cancer cell lines after 72 h of drug (GDSC screen)
[1] = compound: COC(=O)[C@H](CCSC)NC(=O)c1ccc(NC[C@@H](N)CS)cc1-c1ccccc1 [FTI-277]; settings: top dose 1.024 µM; top dose inferred
Description: (§1)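 Human cancer cell lines in 384-well plates, medium with 10% serum, drug for 72 h over a 256-fold dose range (nine 2-fold or five 4-fold steps up to the top dose). Adherent lines were fixed and stained with the nucleic acid dye Syto60, suspension lines read with resazurin; signal relative to control wells, capped at 0 and 100%. One two-parameter sigmoid per drug and line, fitted in a mixed model over all curves with the slope shared within a line.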

[2] = compound: C[C@]1(O)C[C@@H](c2nc(-c3ccc4ccc(-c5ccccc5)nc4c3)c3c(N)nccn32)C1 [OSI-906]; settings: top dose 2.56 µM; top dose inferred
Description: as §1

[3] = compound: O=C(/C=C/c1cccc(S(=O)(=O)Nc2ccccc2)c1)NO [Belinostat]; settings: top dose 20 µM; top dose inferred
Description: as §1

[4] = compound: OCCCNc1cc(-c2ccnc(Nc3cccc(Cl)c3)n2)ccn1 [CGP-60474]; settings: top dose 0.256 µM; top dose inferred
Description: as §1

[5] = compound: Cc1sc2c(c1C)C(c1ccc(Cl)cc1)=N[C@@H](CC(=O)OC(C)(C)C)c1nnc(C)n1-2 [JQ1]
Description: as §1

[6] = compound: c1ccc2c(CCNc3ccc(Nc4ccncc4)cc3)c[nH]c2c1 [JNJ-26854165]; settings: top dose 10 µM
Description: as §1

[7] = compound: CC1=C2C[C@H]3[C@@H](CC=C4C[C@@H](O)CC[C@@]43C)[C@@H]2CC[C@]12O[C@@H]1C[C@H](C)CN[C@H]1[C@H]2C [Cyclopamine]; settings: top dose 16 µM; top dose inferred
Description: as §1

[8] = compound: CCOc1nc(NC(=O)Cc2cc(OC)ccc2OC)cc(N)c1C#N [JNK Inhibitor VIII]; settings: top dose 10 µM; top dose inferred
Description: as §1

[9] = compound: COCC[n+]1c2c(n(Cc3cnccn3)c1C)C(=O)c1ccccc1C2=O [YM155]; settings: top dose 5.12 µM
Description: as §1

[10] = compound: CN1CCN(c2ccc([N+](=O)[O-])c3no[n+]([O-])c23)CC1 [NSC-207895]; settings: top dose 20 µM; top dose inferred
Description: as §1

[11] = compound: CC(=O)O[C@@]12CO[C@@H]1C[C@H](O)[C@@]1(C)C(=O)[C@H](O)C3=C(C)[C@@H](OC(=O)[C@H](O)[C@@H](NC(=O)OC(C)(C)C)c4ccccc4)C[C@@](O)([C@@H](OC(=O)c4ccccc4)[C@H]21)C3(C)C [Docetaxel]; settings: top dose 0.0125 µM
Description: as §1

[12] = compound: Cc1ccc(C(=O)N(CCCN)[C@@H](c2nc3cc(Cl)ccc3c(=O)n2Cc2ccccc2)C(C)C)cc1 [SB-715992]; settings: top dose 0.128 µM; top dose inferred
Description: as §1

[13] = compound: CC1(C)CNc2cc(NC(=O)c3cccnc3NCc3ccncc3)ccc21 [AMG-706]; settings: top dose 2 µM; top dose inferred
Description: as §1

[14] = top dose 1 µM, screen: GDSC drug entry 1218, top dose inferred
[15] = top dose 2.56 µM, screen: GDSC drug entry 163

| Cell Line | AUC [1] | IC50 [1] [nM] | AUC [2] | IC50 [2] [nM] | AUC [3] | IC50 [3] [nM] | AUC [4] | IC50 [4] [nM] | AUC [5, 14] | IC50 [5, 14] [nM] | AUC [5, 15] | IC50 [5, 15] [nM] | AUC [6] | IC50 [6] [nM] | AUC [7] | IC50 [7] [nM] | AUC [8] | IC50 [8] [nM] | AUC [9] | IC50 [9] [nM] | AUC [10] | IC50 [10] [nM] | AUC [11] | IC50 [11] [nM] | AUC [12] | IC50 [12] [nM] | AUC [13] | IC50 [13] [nM] |
| --- | --- | --- | --- | --- | --- | --- | --- | --- | --- | --- | --- | --- | --- | --- | --- | --- | --- | --- | --- | --- | --- | --- | --- | --- | --- | --- | --- | --- |
| LS-513 (large intestine, adherent) | 0.984 | > 1020 | 0.82 | 1550 | 0.56 | 1840 | 0.861 | 231 | 0.978 | > 1000 | 0.917 | > 2560 | 0.851 | 8170 | 0.859 | 14200 | 0.987 | > 10000 | 0.723 | 1420 | 0.973 | > 20000 | 0.938 | > 12.5 | 0.877 | > 128 | 0.987 | > 2000 |
| LS-1034 (large intestine, adherent) | 0.986 | > 1020 | 0.562 | 241 | 0.401 | 651 | 0.816 | 160 | 0.969 | > 1000 | 0.916 | > 2560 | 0.949 | > 10000 | 0.977 | > 16000 | 0.986 | > 10000 | 0.622 | 718 | 0.902 | > 20000 | 0.952 | > 12.5 | 0.879 | > 128 | 0.986 | > 2000 |
| LU-165 (small cell lung carcinoma, suspension) | 0.988 | > 1020 | 0.937 | > 2560 | 0.382 | 567 | 0.962 | > 256 | 0.947 | > 1000 | 0.952 | > 2560 | 0.972 | > 10000 | 0.987 | > 16000 | 0.988 | > 10000 | 0.042 | < 20 | 0.909 | > 20000 | 0.988 | > 12.5 | 0.985 | > 128 | 0.984 | > 2000 |
| MC-CAR (haematopoietic neoplasm, suspension) | 0.964 | > 1020 | 0.964 | > 2560 | 0.236 | 239 | 0.699 | 54 | 0.983 | > 1000 | 0.663 | 429 | 0.932 | > 10000 | 0.978 | > 16000 | 0.971 | > 10000 | 0.066 | < 20 | 0.913 | > 20000 | 0.84 | 7.31 | 0.683 | 24.3 | 0.97 | > 2000 |
| MEG-01 (chronic myeloid leukaemia, suspension) | 0.987 | > 1020 | 0.987 | > 2560 | 0.418 | 758 | 0.776 | 96.2 | 0.771 | 361 | 0.619 | 333 | 0.888 | > 10000 | 0.986 | > 16000 | 0.988 | > 10000 | 0.201 | 44.8 | 0.96 | > 20000 | 0.93 | > 12.5 | 0.856 | 93.8 | 0.987 | > 2000 |
| MFM-223 (breast, adherent) | 0.985 | > 1020 | 0.989 | > 2560 | 0.463 | 995 | 0.988 | > 256 | 0.988 | > 1000 | 0.988 | > 2560 | 0.961 | > 10000 | 0.989 | > 16000 | 0.98 | > 10000 | 0.052 | < 20 | 0.983 | > 20000 | 0.764 | 4.48 | 0.983 | > 128 | 0.953 | > 2000 |
| ML-2 (acute myeloid leukaemia, suspension) | 0.989 | > 1020 | 0.522 | 183 | 0.453 | 946 | 0.795 | 104 | 0.98 | > 1000 | 0.664 | 431 | 0.959 | > 10000 | 0.889 | 14700 | 0.977 | > 10000 | 0.034 | < 20 | 0.84 | 11700 | 0.939 | > 12.5 | 0.598 | 14.4 | 0.978 | > 2000 |
| MLMA (hairy cell leukaemia, semi-adherent) | 0.98 | > 1020 | 0.983 | > 2560 | 0.181 | 136 | 0.717 | 66.3 | 0.976 | > 1000 | 0.782 | 1080 | 0.703 | 2340 | 0.985 | > 16000 | 0.964 | > 10000 | 0.025 | < 20 | 0.786 | 8700 | 0.763 | 4.55 | 0.719 | 33.5 | 0.923 | > 2000 |
